# Results taken from the supplement of paper PMC12217912.
# The other results are listed elsewhere or left out. The full chains were built here from the parent and the listed change. Values near 0.05 are background.
# B1: TEV protease; numbered along this chain (parent)
# chain: MGESLFKGPRDYNPISSSICHLTNESDGHTTSLYGIGFGPFIITNKHLFRRNNGTLVVQSLHGVFKVKDTTTLQQHLVDGRDMIIIRMPKDFPPFPQKLKFREPQREERICLVTTNFQTKSMSSMVSDTSCTFPSGDGIFWKHWIQTKDGQCGSPLVSTRDGFIVGIHSASNFTNTNNYFTSVPKNFMELLTNQEAQQWVSGWRLNADSVLWGGHKVFMVKPEEPFQPVKEATQL
# Variants of: B1
# Assay: raw area under fraction-flipped curve 0-4 h after induction (AUC4h, not background-subtracted), DNA-recorder readout of cleavage of the substrate (dimensionless); higher = more cleavage of the substrate by the protease variant
# Details: temperature: 34 °C; time window: 0-4 h after rhamnose induction
# Description: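 In vivo DNA recorder in E. coli TOP10(DE3) ΔrhaA at 34 °C. Each TEVp single-site mutant (parent TEVp 0) is paired with a single-site variant of the 7-mer TEVs (canonical ENLYFQ|S). The substrate sits between flexible linkers in a Bxb1-sfGFP-TEVs-SsrA fusion, so cleavage stabilises Bxb1 and speeds flipping of a recombination array, read by NGS. The value is the raw area under the fraction-flipped curve over 0-4 h after rhamnose induction (AUC4h), with ≥20 reads per time point. It is not background-subtracted; inactive controls average about 0.047.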
# 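Also: Bxb1 expression induced with 0.2% (w/v) L-rhamnose at OD600 near 0.5, cultures sampled hourly, flipped fraction per protease–substrate barcode pair counted by paired-end Illumina sequencing.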
Variant,area with substrate ENLYFQA,area with substrate ENLYFQC,area with substrate ENLYFQD,area with substrate ENLYFQE,area with substrate ENLYFQG,area with substrate ENLYFQH,area with substrate ENLYFQI,area with substrate ENLYFQK,area with substrate ENLYFQL,area with substrate ENLYFQM,area with substrate ENLYFQN,area with substrate ENLYFQP,area with substrate ENLYFQR,area with substrate ENLYFQS,area with substrate ENLYFQT,area with substrate ENLYFQQ,area with substrate ENLYFQV,area with substrate ENLYFQY,area with substrate ENLYFQF,area with substrate ENLYFQW
MGESLFKGPRDYNPISSSICHLTNESDGHTTSLYGIGFGPFIITNKHLCRRNNGTLVVQSLHGVFKVKDTTTLQQHLVDGRDMIIIRMPKDFPPFPQKLKFREPQREERICLVTTNFQTKSMSSMVSDTSCTFPSGDGIFWKHWIQTKDGQCGSPLVSTRDGFIVGIHSASNFTNTNNYFTSVPKNFMELLTNQEAQQWVSGWRLNADSVLWGGHKVFMVKPEEPFQPVKEATQL [F49C],0.0735,0.0744,0.0573,0.0641,0.0682,0.0645,0.0636,0.0539,0.0544,0.0665,0.0458,0.0486,0.0527,0.0676,0.0538,,,,,
MGESLFKGPRDYNPISSSICHLTNESDGHTTSLYGIGFGPFIITNKHLFRRNNGTLVVQSLHGVFKVKDTTTLQQHLVDGRDMIIIRMPKDFPPFPQKLKFREPQREERICLVTTNFQTKSMSSMVSDTSCTFPSGDGIFWKHWIQTKDGLCGSPLVSTRDGFIVGIHSASNFTNTNNYFTSVPKNFMELLTNQEAQQWVSGWRLNADSVLWGGHKVFMVKPEEPFQPVKEATQL [Q151L],0.0785,0.0976,0.0813,0.0626,0.0781,,0.0475,0.0486,,,0.076,0.0384,0.0573,0.0852,0.0735,0.0583,0.0613,0.0572,,
MGESLFKGPRDYNPISSSICHLTNESDGHTTSLYGIGFGPFIITNKHLFRRNNGTLVVQSLHGVFKVKDTTTLQQHLVDGRDMIIIRMPKDFPPFPQKLKFREPQRMERICLVTTNFQTKSMSSMVSDTSCTFPSGDGIFWKHWIQTKDGQCGSPLVSTRDGFIVGIHSASNFTNTNNYFTSVPKNFMELLTNQEAQQWVSGWRLNADSVLWGGHKVFMVKPEEPFQPVKEATQL [E107M],0.0788,,0.0656,,,,,0.0669,0.0465,,0.0733,0.0518,0.0505,0.0956,0.0702,,0.0592,0.072,0.0853,
MGESLFKGPRDYNPISSSICHLTNESDGHTTSLYGIGFGPFIITNKHLFRRNNGTLVVQSLHGVFKVKDTTTLQQHLVDGRDMIIIRMPKDFPPFPQKLKFREPQREERICLVTTNFQTKSMSSMVSDTSCTFPSGDGIFWKHWIQTKDGQCGSPLVSTRDGFIVGIHSASNFTNTNNYFTSVPKNNMELLTNQEAQQWVSGWRLNADSVLWGGHKVFMVKPEEPFQPVKEATQL [F187N],0.0537,0.0487,0.0548,,,0.0574,0.0515,0.0573,0.0646,0.0405,0.0428,,0.0567,0.0546,,,,,0.0289,0.0573
MGESLFKGPRDYNPISSSICHLTNESDGHTTSLYGIGFGPFIITNKHLFRRNNGTLVVQSLHGVFKVKDTTTLQQSLVDGRDMIIIRMPKDFPPFPQKLKFREPQREERICLVTTNFQTKSMSSMVSDTSCTFPSGDGIFWKHWIQTKDGQCGSPLVSTRDGFIVGIHSASNFTNTNNYFTSVPKNFMELLTNQEAQQWVSGWRLNADSVLWGGHKVFMVKPEEPFQPVKEATQL [H76S],0.0777,0.12,0.051,0.0696,0.0898,0.0679,,0.0735,0.0607,0.0789,0.0737,0.0547,0.0446,0.0936,0.0638,0.0901,0.0578,0.0583,0.0711,
MGESLFKGPRDYNPISSSICHLTNESDGHTTSLYGIGFGPFIITNKHLFRRNNGTLVVQSLHGVFKVKDTTTLQQHLVDGRDMIIIRMPKDFPPFPQKLKFREPQREERICLVTTNFQTKSMSSMVSDTSCTFPSGDGYFWKHWIQTKDGQCGSPLVSTRDGFIVGIHSASNFTNTNNYFTSVPKNFMELLTNQEAQQWVSGWRLNADSVLWGGHKVFMVKPEEPFQPVKEATQL [I139Y],0.0749,,0.0643,,0.0939,,0.038,,0.0705,,0.075,0.0608,0.0541,0.113,,,0.0321,,,0.0534
MGESLFKGPRMYNPISSSICHLTNESDGHTTSLYGIGFGPFIITNKHLFRRNNGTLVVQSLHGVFKVKDTTTLQQHLVDGRDMIIIRMPKDFPPFPQKLKFREPQREERICLVTTNFQTKSMSSMVSDTSCTFPSGDGIFWKHWIQTKDGQCGSPLVSTRDGFIVGIHSASNFTNTNNYFTSVPKNFMELLTNQEAQQWVSGWRLNADSVLWGGHKVFMVKPEEPFQPVKEATQL [D11M],0.0642,0.0669,0.0626,,0.0656,,0.0353,,0.0624,0.0524,0.0624,0.0733,0.051,0.0645,0.0539,,,0.0566,0.0574,0.0561
MGESLFKGPRDYNPISSSICHLTNESDGHTTSLYGIGAGPFIITNKHLFRRNNGTLVVQSLHGVFKVKDTTTLQQHLVDGRDMIIIRMPKDFPPFPQKLKFREPQREERICLVTTNFQTKSMSSMVSDTSCTFPSGDGIFWKHWIQTKDGQCGSPLVSTRDGFIVGIHSASNFTNTNNYFTSVPKNFMELLTNQEAQQWVSGWRLNADSVLWGGHKVFMVKPEEPFQPVKEATQL [F38A],0.0731,0.09,,,0.0809,0.0686,,0.0538,,0.063,,0.0466,0.0498,0.0798,0.0622,0.0749,0.0485,0.0631,0.0525,0.0626
MGESLFKGPRDYNPISSSICHLTNESDGHTTSLYGIGFGPFIITNKHLFRRNNGTLVVQSLHGVFKVKDTTTLQQHLVDGRDMIIIRMPKDFPPGPQKLKFREPQREERICLVTTNFQTKSMSSMVSDTSCTFPSGDGIFWKHWIQTKDGQCGSPLVSTRDGFIVGIHSASNFTNTNNYFTSVPKNFMELLTNQEAQQWVSGWRLNADSVLWGGHKVFMVKPEEPFQPVKEATQL [F95G],0.0502,0.0648,0.0453,,0.0607,,,0.0514,,,0.0334,0.0416,,0.0659,,,0.0413,0.0513,,0.0502
